Data: ChEMBL document CHEMBL1201862, “PubChem BioAssay data set” (2004)

The compounds below were run on NCI-H322M (assay: growth of human tumour cells (NCI), 48 h).

Q: Which GI50 does the source give for `COc1ccc2oc(=N)c(C(=O)Nc3ccccc3)cc2c1` here?
A: The GI50 was inactive: 42.6 µM.

Q: `Cc1nc2ccc(NCCN(C)C)c3c(=O)c4ccccc4n1c23` was tested. Which GI50 did it give?
A: Its GI50 is inactive: 1.79 µM.

Q: `Cc1c(OC(C)C(=O)O)ccc2c(-c3ccccc3)cc(=O)oc12` (stereo not given) was tested. Which GI50 did it give?
A: The GI50 was inactive: > 100 µM.

Q: How did the GI50 turn out when `N#CC1(Nc2ccc(-c3ccc(NC4(C#N)CCCC4)cc3)cc2)CCCC1` was run?
A: The GI50 was inactive: > 100 µM.

Q: Which GI50 does the source give for `CCc1nc(N)nc(N)c1-c1ccc2nn(-c3ccccc3)[n+]([O-])c2c1` here?
A: Its GI50 is inactive: 3.79 µM.

Q: With `O=C1COc2cccnc2N1CCCCO` as the compound, how does the GI50 read?
A: The GI50 was inactive: > 100 µM.

Q: How did the GI50 turn out when `c1cc2nnc1SCCCSc1ccc(nn1)SCCCS2` was run?
A: Its GI50 is inactive: > 54.5 µM.

Q: With `CC(/C=C/c1ncccc1OCCCCCC(=O)O)=N\NC1=NCCN1` as the compound, how does the GI50 read?
A: Its GI50 is inactive: > 100 µM.

Q: For `COC(=O)/C(=C\c1ccco1)P(=O)(OC)OC`, which GI50 is on record?
A: The GI50 was inactive: 32.3 µM.

Q: With `COc1ccc2c(c1)CCCN1Cc3cc(OC)c(OC)cc3CC21` (stereo not given) as the compound, how does the GI50 read?
A: The GI50 was inactive: > 100 µM.

Q: How did the GI50 turn out when `O=NN(CC1(O)OCC(O)C(O)C1O)C(Cc1c[nH]c2ccccc12)C(=O)O` (stereo not given) was run?
A: The GI50 was inactive: > 100 µM.

Q: How did the GI50 turn out when `CCC1(O)CC(CCN(Cc2ccccc2)C(=O)OCc2ccccc2)C(OCc2ccccc2)C1O` (stereo not given) was run?
A: The GI50 was inactive: 17.8 µM.

Q: For `O=C1C(c2ccccc2)=[N+]([O-])c2cc([N+](=O)[O-])ccc21`, which GI50 is on record?
A: The GI50 was inactive: 37.5 µM.

Q: For `N#Cc1ccc(-c2nc(C#N)c(N)o2)cc1`, which GI50 is on record?
A: Its GI50 is inactive: > 10 µM.

Q: Which GI50 does the source give for `O=C(c1ccccc1)c1c(CC(O)c2ccncc2)n(C(=O)c2ccccc2)c2ccccc12` (stereo not given) here?
A: Its GI50 is inactive: 27.8 µM.

Q: For `CC1CC(NC2CCCCC2)=Nc2ccccc2N1Cc1ccccc1` (stereo not given), which GI50 is on record?
A: Its GI50 is inactive: 9.79 µM.

Q: How did the GI50 turn out when `O=C(N/C(=C\c1cccc([N+](=O)[O-])c1)c1nc2c(O)nc(S)nc2[nH]1)c1ccccc1` was run?
A: Its GI50 is inactive: > 100 µM.

Q: How did the GI50 turn out when `C=CC(OCC)(OCC)OCC` was run?
A: The GI50 was inactive: > 100 µM.

Q: How did the GI50 turn out when `O=C(/C=C/c1ccc(O)cc1)c1cc(Cl)ccc1O` was run?
A: Its GI50 is inactive: 47.4 µM.

Q: Which GI50 does the source give for `O=C(Nc1ccc(F)cc1)c1cc2ccc(O)cc2o/c1=N\c1ccccc1F` here?
A: Its GI50 is inactive: 13.8 µM.

Q: Which GI50 does the source give for `C=CC1(c2ccc3ccccc3c2)OCC(CC)O1` (stereo not given) here?
A: The GI50 was inactive: > 100 µM.

Q: For `O=C1/C(=C/c2ccccc2)NC(=S)N1CN1CCOCC1`, which GI50 is on record?
A: The GI50 was inactive: > 100 µM.

Q: With `Cn1c(C(C#N)c2nc(Cl)ncc2Br)nc2ccccc21` (stereo not given) as the compound, how does the GI50 read?
A: The GI50 was inactive: > 100 µM.

Q: For `CN1CCCS/C1=C1/SC(=S)N(c2ccccc2)C1=O`, which GI50 is on record?
A: The GI50 was inactive: > 100 µM.

Q: For `COc1cccc(/C=N/n2c(-c3ccccc3)n[nH]c2=O)c1`, which GI50 is on record?
A: Its GI50 is inactive: > 100 µM.

Q: `Cn1c2ccccc2n2c3ccccc3c(=O)c(C#N)c12` was tested. Which GI50 did it give?
A: Its GI50 is inactive: 8.81 µM.

Q: With `CO/N=C(/C(=O)OC)c1ccccc1COc1cccc(C(F)(F)F)c1` as the compound, how does the GI50 read?
A: The GI50 was inactive: 26.1 µM.

Q: Which GI50 does the source give for `COC(=O)C1CCC(=O)N1/C(C)=N/NC(=O)Nc1ccc(Cl)c(Cl)c1` (stereo not given) here?
A: The GI50 was inactive: > 100 µM.

Q: With `O=[N+]([O-])C(/C=C(\Cl)[N+](=O)[O-])=C1Nc2ccccc2N1` as the compound, how does the GI50 read?
A: Its GI50 is inactive: > 100 µM.

Q: Which GI50 does the source give for `Cc1c(N2C(=O)/C(=C/C=C/c3ccccc3)N=C2c2ccccc2)c(=O)n(-c2ccccc2)n1C` here?
A: Its GI50 is inactive: 57 µM.

Q: `COc1ccc(N[C@H](C[S+]([O-])c2ccc(C)cc2)C(F)(F)C(F)(F)F)cc1` (stereo not given in full) was tested. Which GI50 did it give?
A: Its GI50 is inactive: > 100 µM.

Q: Which GI50 does the source give for `O=C1c2cc3c(cc2CC12Cc1ccc4c(c1C2=O)CCC4)CCCC3` (stereo not given) here?
A: Its GI50 is inactive: > 100 µM.

Q: With `CN1CCC(CNC(=O)CCCCCCCCC(=O)NCC2(c3ccccc3)CCN(C)CC2)(c2ccccc2)CC1` as the compound, how does the GI50 read?
A: Its GI50 is inactive: > 100 µM.

Q: `SC1=NC2=C(CSC/C2=C\c2cccc(Br)c2)C(c2cccc(Br)c2)N1` (stereo not given) was tested. Which GI50 did it give?
A: The GI50 was inactive: > 100 µM.

Q: With `O=C(Nc1ccn(CCO)c(=O)n1)c1ccccc1` as the compound, how does the GI50 read?
A: Its GI50 is inactive: > 100 µM.

Q: Which GI50 does the source give for `COn1oc(=O)c2ccccc21` here?
A: The GI50 was inactive: > 100 µM.

Q: How did the GI50 turn out when `C#CCN(Cc1ccc2nc(-c3ccccc3)c(Cl)nc2c1)c1ccc(F)cc1` was run?
A: The GI50 was inactive: 89.7 µM.

Q: For `CC(C)(C)OC(=O)NC(Cc1c[nH]cn1)C(=O)N1CCCC1C(N)=O` (stereo not given), which GI50 is on record?
A: Its GI50 is inactive: > 100 µM.

Q: With `O=C1C[C@@H]2[C@@H](C=CC23CCCC3)N1O` as the compound, how does the GI50 read?
A: Its GI50 is inactive: > 100 µM.

Q: With `COC1CC(OC2C(C)OC(OC3C(C)OC(OC4C(C)OC(O[C@H]5CC[C@@]6(C)C(=CC[C@]7(O)[C@@H]6C[C@@H](OC(=O)/C=C/c6ccccc6)[C@@]6(C)[C@]7(O)CC[C@@]6(O)C(C)=O)C5)CC4OC)CC3OC)CC2OC)OC(C)C1O` (stereo not given in full) as the compound, how does the GI50 read?
A: Its GI50 is inactive: > 12.5 µM.

Q: Which GI50 does the source give for `COC(=O)C#Cc1cccc(OC)c1OC` here?
A: The GI50 was inactive: 75.9 µM.

Q: `NCc1ccc(O)c(O)c1` was tested. Which GI50 did it give?
A: Its GI50 is inactive: > 100 µM.

Q: With `CC1=C(C(=O)N[C@@H](CC(C)C)C(=O)O)N2C(=O)[C@@H](NC(=O)C(N)c3ccccc3)[C@H]2SC1` (stereo not given in full) as the compound, how does the GI50 read?
A: Its GI50 is inactive: > 100 µM.

Q: Which GI50 does the source give for `C1CCC2(CC1)O[C@@H]1[C@@H](O2)[C@@H](O[C@H]2O[C@@H]3COC4(CCCCC4)O[C@H]3[C@@H]3OC4(CCCCC4)O[C@@H]23)O[C@@H]2COC3(CCCCC3)O[C@@H]12` here?
A: The GI50 was inactive: > 100 µM.

Q: `Cn1ccnc1Sc1ccc(/C=N/NC(=O)c2ccccc2O)cc1[N+](=O)[O-]` was tested. Which GI50 did it give?
A: Its GI50 is inactive: 65.6 µM.

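Results reflect a 48-hour exposure of cells in 96-well plates to compound at five concentrations. GI50 marks 50% less growth.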 The source made the active and inactive calls. Rule as the data show it: active = GI50 up to about 1.1 µM and inactive = higher.
